Source: PubChem BioAssay AID743279 (National Center for Advancing Translational Sciences (NCATS), 2014)
Screen size: about 360,000 compounds; about 17,000 (4.7%) were called active. This list was built around the results that the source calls inconclusive (neither active nor inactive); the mix of calls is not that of the screen. No stated cut-off is given here; in the data, active means activity change below about -50%; inconclusive means mostly about -30% to -49%; inactive means weaker than that.

Assay: qHTS for Inhibitors of Inflammasome Signaling: IL-1-beta AlphaLISA Primary Screen
Details: THP-1 LPS/ATP IL-1B secretion, 16 h; at 57.5 µM, active compounds read low
How it was run: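 THP-1 cells pretreated 1 hr with compounds (up to 57.5 uM final), then stimulated with LPS (250 ng/mL final) plus ATP (1.25 mM final); secreted IL-1B measured by AlphaLISA after 16 hr, decreased signal indicating inhibition.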
On the % scale 0 is the no-effect control and ±100 the full control effect.

SMILES	activity change
O=C(CN(Cc1ccccc1)C(=O)c1cc2c(s1)CCC2)NCc1cccs1	inconclusive: -42.2%
Cc1ccc(S(=O)(=O)N2CCN(C(=O)CN3C(=O)CNC3=O)CC2)cc1	inactive: 2.81%
COc1ccccc1C1=NN(C2=NN=C(N)Cc3ncnn32)C(O)(C(F)(F)F)C1 (stereo not drawn)	inconclusive: -40.8%
O=C(c1cccc(-n2cccc2)c1)N1CCN(S(=O)(=O)c2ccccc2Br)CC1	inconclusive: -44.7%
O=C(COc1ccccc1Cl)N1CCN(c2ccc([N+](=O)[O-])c(N3CCCCC3)c2)CC1	inconclusive: -31.5%
CCc1nc2ccc(C(=O)Nc3cc(-c4ccccc4)ccc3OC)cn2c1N(CC)Cc1cccc(Br)c1	inconclusive: -45.1%
O=C(CSc1nncc(=O)[nH]1)Nc1cccc([N+](=O)[O-])c1	inconclusive: -48.2%
COc1ccc(OC)c(C2=NS(=O)(=O)N(C)C(C(=O)Nc3ccc(C(C)=O)cc3)=C2)c1	inconclusive: -43.5%
CN1CCN(c2oc(-c3ccccc3Cl)nc2S(=O)(=O)c2ccccc2)CC1	inactive: -29.1%
CCOC(=O)C1(Cc2ccccc2)CCN(Cc2cccc(OC)c2O)CC1	active: -50.1%
COc1ccc(Nc2nc3cc(-c4ccccc4C)sc3c(=O)n2C)cc1OC	inconclusive: -38.9%
CCN(CC)CCN(Cc1cc2cc3c(cc2[nH]c1=O)OCCO3)C(=S)NCC(C)C	active: -61.9%
COc1ccccc1NC(=O)c1ccccc1N(Cc1ccccc1)S(C)(=O)=O	inactive: -1.87%
O=C(CC1C[C@H](C(=O)N2CCCCC2)[C@@]2(CCc3ccccc3)c3[nH]c4ccccc4c3CCN2C1=O)NCCCn1ccnc1 (stereo partly drawn)	inconclusive: -39.5%
O=C1/C(=C/c2ccc(N3CCCC3)cc2)NC(=S)N1C1CC1	active: -77.1%
CCc1nn(C(CC)C(=O)NCC(C)c2ccccc2)c(=O)c2cc3occc3n12 (stereo not drawn)	inconclusive: -38.1%
Cn1c(SCC(=O)NCc2ccccc2)ncc(C(=O)Nc2ccccc2)c1=O	inactive: 19.1%
CCCCC(=O)NC(c1ccc(Cl)cc1Cl)c1ccc2cccnc2c1O (stereo not drawn)	inactive: 179%
CCc1ccc(NC(=O)C(C)Sc2nc(-c3ccco3)c(C#N)c(=O)[nH]2)cc1 (stereo not drawn)	inactive: 8.7%
Cc1nc2oc3c(NCC4CCCO4)ncnc3c2c2c1COC(C)(C)C2 (stereo not drawn)	inconclusive: -32.8%
CCC(=O)N1c2ccccc2C(N(C(=O)CC)c2ccccc2)CC1C (stereo not drawn)	inactive: 110%

SMILES	activity change
CCOC(=O)c1[nH]c(C)c(C(=O)N2CCc3c([nH]c4ccccc34)C2c2ccccn2)c1C (stereo not drawn)	active: -51.7%
Cc1cc(C)cc(Cn2cc(CN3CC(N4CCSCC4)CS3(=O)=O)nn2)c1 (stereo not drawn)	inactive: -19.8%
Cc1c2cnn(-c3ccccc3)c(=O)c2c(C)n1CCCC(=O)N1CCN(C2CCCCC2)CC1	inconclusive: -48.5%
CCC1CCCCN1CCCNC(=O)c1cn(CC)c2ccc(S(=O)(=O)N(C)C3CCCCC3)cc2c1=O (stereo not drawn)	inconclusive: -39.9%
Cc1cccc(NC(=O)N2C3CCCC2CC(NC(=O)C2CC2)C3)c1 (stereo not drawn)	inactive: -12.9%
CN(C)/C=C1\C(=O)N(C)N=C1C(F)(F)F	inactive: 32.4%
CC(=O)NC1CC2CCCC(C1)N2C(=O)Nc1cccc(C(C)=O)c1 (stereo not drawn)	inactive: 1.43%
C/C(=C\c1ccc(N)cc1)c1nc2ccccc2[nH]1	inconclusive: -38.4%
c1ccc(-n2nnnc2SCc2ccccn2)cc1	inconclusive: -35.2%
CC(OC(=O)c1cccs1)C(=O)NCc1cccs1 (stereo not drawn)	inconclusive: -36.9%
CC1CCCC(C)N1C(=O)COC(=O)c1ccccc1C(=O)c1ccccc1 (stereo not drawn)	inactive: -9.64%
Cc1cccc(-c2cnc(C(O)c3ccc(-c4ccccc4)cc3)[nH]2)c1 (stereo not drawn)	inactive: -2.28%
O=C(NNC(=S)Nc1ccc(F)c(Cl)c1)c1ccccc1Br	active: -61.7%
O=C(Cc1ccsc1)NNC(=O)c1cccc(Cl)c1	inactive: -1.25%
Cc1cc(C(=O)N2CCC(Cc3ccccc3)CC2)no1	inconclusive: -40.6%
Cc1ccc2cc(C#N)c(SCC(=O)N3CCCc4ccccc43)nc2c1	inactive: 0%
COCCOC(=O)c1c(C)oc2ccc(OC(=O)c3cccs3)cc12	inconclusive: -33.8%
Cc1ccc(N2C(=O)Nc3ccccc3S2(=O)=O)cc1Cl	inconclusive: -42.3%
COc1cccc(NC(=O)COC(=O)c2c(F)cccc2F)c1	inactive: 14.3%
COc1ccc(C(=O)N2CCOC2CNC(=O)C(=O)NCc2ccccn2)cc1 (stereo not drawn)	inactive: 3.88%
COC(=O)c1ccc(C(=O)OC)c(NC(=O)CCC(=O)O)c1	inactive: 0%

SMILES	activity change
O=S(=O)(NCc1ccc(F)cc1)c1ccc2c(c1)OCCO2	inconclusive: -38.5%
COc1ccc(NC(=O)CSc2cc(C(=O)c3nccn3C)c3ccccc3n2)cc1	inconclusive: -34.1%
NC(COCc1ccccc1)c1csc(Nc2ccc(C(F)(F)F)cn2)n1 (stereo not drawn)	inconclusive: -30.9%
COC(=O)[C@@]1(Cc2ccc(F)cc2)[C@H]2c3cc(C(=O)N4CCCC4)n(CCc4ccccn4)c3C[C@H]2CN1C(=O)c1ccccc1	inactive: -22.9%
O=C(Nc1ccc(NC(=O)c2cccs2)cc1)c1ccc2c(c1)OCCO2	inactive: 32.9%
O=C(COC(=O)c1ncc(Cl)c(Cl)c1Cl)c1ccc(Cl)s1	inconclusive: -30%
COc1ccc(NC(=O)CN2C(=O)COc3ccc(S(=O)(=O)N4CCOCC4)cc32)cc1Cl	inconclusive: -30.2%
O=C(CCNC(=O)c1ccccc1Cl)Nc1nc(-c2ccc3ccccc3c2)cs1	inconclusive: -42%
CCC1CCCCN1CCCNC(=O)c1ccc2c(c1)N(Cc1c(F)cccc1Cl)C(=O)CS2 (stereo not drawn)	inactive: -15.8%
CCOc1ccc(NC(=O)CN(C)C(=O)C(C)Oc2ccc(Cl)cc2)cc1OCC (stereo not drawn)	inactive: -0.638%
Cc1cc(F)ccc1N1CCC(N2CCN(CCC(C)C)C(CCO)C2)CC1 (stereo not drawn)	active: -66%
COc1ccc(S(=O)(=O)N(C)C[C@@H]2Oc3c(NS(C)(=O)=O)cccc3C(=O)N([C@@H](C)CO)C[C@H]2C)cc1	inactive: 18.2%
COc1cccc2[nH]c3c(N4CCC(C)CC4)ncnc3c12	active: -52.2%
C[C@H](O)[C@@H]1C(=O)N2CCc3c([nH]c4ccccc34)[C@@H]2C[C@@H]1N(C)C(=O)Nc1cccc2ccccc12	inactive: -15.3%
CCOC(=O)N1CCN(S(=O)(=O)c2ccc(C(=O)N(CCCN(C)C)c3nc4cc(OC)ccc4s3)cc2)CC1	inconclusive: -40.6%
Cc1[nH]c2ccccc2c(=O)c1C(=O)/C=C/c1ccccc1	active: -101%
Cc1[nH]c2ccccc2c1/C=C/c1nc2ccccc2c(=O)n1CCO	active: -84.3%
Cc1nnc2c3ccccc3c(Cl)nn12	inconclusive: -35.5%
Cc1cc2nc(C(C)(C)C)c(Cc3ccccc3)n2c(C)c1Br	inactive: 63.6%
O=C(Nc1cccc([N+](=O)[O-])c1)c1ccc(CSc2ccccc2)cc1	inconclusive: -37.2%
O=C(NCCCn1ccnc1)c1nn2c(C(F)(F)F)cc(-c3ccccc3)nc2c1Cl	inconclusive: -33.9%

SMILES	activity change
C(=N\Nc1nc(N2CCCC2)nc(N2CCCC2)n1)/c1ccccc1OCc1ccccc1	inconclusive: -41.9%
Cc1c(C)c2cc(Cl)c(OC(C)C(=O)NCCN3CCOCC3)cc2oc1=O (stereo not drawn)	inactive: -1.05%
CC(C)C[C@H]1CN([C@@H](CC(C)C)CN2CCC[C@@H]2CN2C(=O)C(=O)NC[C@@H]2Cc2ccccc2)C(=O)C(=O)N1CCc1ccccc1	active: -63.4%
N#CCC(=O)Nc1ccc(C(=O)OC(C(=O)Nc2ccc([N+](=O)[O-])cc2Br)c2ccccc2)cc1 (stereo not drawn)	inconclusive: -43.7%
O=C(NC1CCCC1)c1ccc(CSc2nc3ccncc3n2Cc2ccc(F)cc2)cc1	inactive: 2.56%
COc1ccc2nc(Nc3nc(-c4ccncc4)cs3)sc2c1	inconclusive: -35.3%
CSc1nc(Cl)c(Cc2ccc(OC(C)C)cc2)c(N(C)C)n1	inactive: 4.76%
C[C@@H]1CCC(=O)N(CC[C@H](Sc2ccc(Br)cc2)c2ccccc2)CC1	active: -71.3%
COc1ccccc1C(CC(=O)c1ccccc1)CC(=O)c1ccccc1	inconclusive: -42.6%
CCOC(=O)c1oc2ccc(CNC3CCCCC3)c(Cl)c2c1C	active: -82.1%
Cc1cc(C)nc(NS(=O)(=O)c2ccc(NC(=S)NC(=O)C(C)(C)C)cc2)n1	inactive: 12.1%
CCC(=O)N(Cc1cc2cc(OC)ccc2[nH]c1=O)c1cccc(C)c1	inactive: -18.2%
COc1ccc2c(c1)NC(=O)CC(c1ccccc1)=N2	inactive: -3.2%
COC(=O)[C@]12CCCCC=C1N(CCc1ccc(OC)c(OC)c1)C(=O)[C@H](CC(=O)NCCC(C)C)C2	inconclusive: -35.2%
COc1ccc(C(=O)NCCn2cc(SCC(=O)NCc3ccco3)c3ccccc32)cc1	inactive: -1.82%
CC(=O)Nc1ccc(NC(=O)C(C)OC(=O)c2ccc3ccccc3n2)cc1 (stereo not drawn)	inactive: 25.8%
O=C(NNC(=O)c1ccccc1[N+](=O)[O-])c1ccccc1[N+](=O)[O-]	inactive: 11.5%
COc1ccc(CCNCC(O)COc2ccc(OC)cc2C(C)(C)C)cc1 (stereo not drawn)	active: -97%
CC(CSc1nnnn1-c1ccccc1)Cn1c(N2CCCC2)nc2c1c(=O)[nH]c(=O)n2C (stereo not drawn)	inconclusive: -30.8%
CCOc1ccc(-c2cccc(NC(=O)COc3ccc(Cl)cc3)c2)nn1	inconclusive: -45.1%
